This is one part of the list.
B1: chr2:121605696:121605828:-|CDS|ENSG00000074054|unk|FALSE|unique (ssRNA)
RNA: GGGAGUUCUACAGUCCGACGAUCGAUAGACUAUUUCUCAGACAAACAGAAGUCUGCUGACCUUGAGCAUGACCAGACCAUGUUAGAUAAACUUGUGGAUGGACUUGCUACCUCUUGGGUGAACUCUAGCAAUUACAAGGUAAGCAACAGAGGAUUGAGCAUCA
B2: chr17:18327447:18327548:+|3pUTR|ENSG00000176994|msi1|FALSE|unique (ssRNA)
RNA: GGGAGUUCUACAGUCCGACGAUCGUCAACUCACAGAUUCUGCAGCAGCUGCUCCACCCACAAUAAAGCAAACGCCGACAGGCUAGACCCCAGAUUGCAGGGGCUGCCACCUACAAGGUGGGACCACAGGCUGCCUCACCGGGACAACAGAGGAUUGAGCAUCA
B3: chr5:10264816:10264917:+|3pUTR|ENSG00000150753|msi1_unk|total|mutant (ssRNA)
RNA: GGGAGUUCUACAGUCCGACGAUCAAUGGAUGUCUCGUGAUGCAUCUACAGUUAUUUAUUGUUACAUCCUUUUCCAGACACUGCCGAUGCUAUAAUAAAAACCGCUGUUUGGUAACCACCGUUUCACUUGUUCAAAGCUGUGUACAACAGAGGAUUGAGCAUCA
B4: ENSG00000124766:be:win_3801|3pUTR|ENSG00000124766|bound_else_gene|NA|bound_elsewhere_windowed (ssRNA)
RNA: GGGAGUUCUACAGUCCGACGAUCUGUUUAAUAUAACAUGACAGGCACUAGGACGUCUGCCUUUUUAAGGCAGUUCCGUUAAGGGUUUUUGUUUUUAAACUUUUUUUUGCCAUCCAUCCUGUGCAAUAUGCCGUGUAGAAUAUUCAACAGAGGAUUGAGCAUCA
B5: chr15:34980028:34980129:-|3pUTR|ENSG00000198146|msi1|total|mutant (ssRNA)
RNA: GGGAGUUCUACAGUCCGACGAUCGGUUCUGUUAUUUAAGCCUGUUCUAAGUUUGAUCAAAUGGCAAUGACCCGGUCCCGUUUCCGUUUUUAUUUUUGCAGGAGUCUAUUGCUAAAGAAUUUUAUUUUGAUGCUUGUUAAAUUUCAACAGAGGAUUGAGCAUCA
B6: ENSG00000070961:be:win_1001|CDS|ENSG00000070961|bound_else_gene|NA|bound_elsewhere_windowed (ssRNA)
RNA: GGGAGUUCUACAGUCCGACGAUCAGCCAUUGAAGAGUGAAGAAGGUGGAGAUGGUGAUGAAAAAGAUAAAAAGAAAGCAAAUUUGCCAAAAAAGGAAAAAUCUGUUUUACAAGGGAAACUUACAAAACUGGCUGUUCAGAUUGCAACAGAGGAUUGAGCAUCA
B7: ENSG00000137504:stop:overlap|stop_codon|ENSG00000137504|stop_codon|NA|stop_codon (ssRNA)
RNA: GGGAGUUCUACAGUCCGACGAUCAGGUGUCGGUGGAGUUCUGCUCGGCGUGCGCCCGGAAGGCGUCGUCUUCUCUUAAAAUGUAGGGUCAAGUAAUCUGCUCUUUAUCCGCGUUUACCCCUUUCAACUCCCUUACACCAUGUCCAACAGAGGAUUGAGCAUCA
B8: chr20:56404979:56405080:+|3pUTR|ENSG00000101138|unk|total|mutant (ssRNA)
RNA: GGGAGUUCUACAGUCCGACGAUCCCGCGCCCAGCCUUCCUGAAGCUUUUCCGAACAUGACAGUACUUCUCUGGAUUCAGCACCCGCAGAGUCAGAGAACUCUGAACUCCCCUUGUACAAACAUAAACUUUGCUUUAUAUUUAUCAACAGAGGAUUGAGCAUCA
B9: chr3:157259741:157261133:-|three_prime_utr|ENSG00000197415|control|control|control (ssRNA)
RNA: GGGAGUUCUACAGUCCGACGAUCACUAAAUACCAAUGGAAUUGUUGUCCUUUAAGAAGAAGGGCCUAAAAUGGCAGGAUUCUUAGUAAAUGUCAUACUCUAACAGCUUUAGUAUUGACUUCAGAAUAUAUCUGAUGCCCACAACAACAGAGGAUUGAGCAUCA
B10: chr10:62092816:62092917:+|CDS|ENSG00000150347|msi1|FALSE|unique (ssRNA)
RNA: GGGAGUUCUACAGUCCGACGAUCUUUUACAUCACCGACAAAUUCUCAGCAGCUGUACAGACACUUGGCUGCGGCUACACCUGUAGGAAGUUCAUAUGGGGACCUUUUGCAUAACAGCAUUUACCCUUUAGCUGCUAUAAAUCCCAACAGAGGAUUGAGCAUCA
B11: chr2:42282796:42282970:+|CDS|ENSG00000143924|unk|FALSE|unique (ssRNA)
RNA: GGGAGUUCUACAGUCCGACGAUCAUAUGGUUAUCGAGGAAAGGACUGUAGAGCUAAUGUUUACCUUCUUCCGACCGGGAAAAUAGUUUAUUUCAUUGCAUCAGUAGUAGUACUAUUUAAUUAUGAGGAGAGAACUCAGCGACACAACAGAGGAUUGAGCAUCA
B12: chr7:44573567:44573675:-|CDS|ENSG00000136271|unk|total|mutant (ssRNA)
RNA: GGGAGUUCUACAGUCCGACGAUCCGCACGGGCUCCGGGAAGACGGCCGCUUAUGCUAUUCCGAUGCUGCAGCUGUUGCUCCACCGGAAGGCGGUGGGUAACGAGAGAGCUGAGGGGAGGAAGGAGGCAAGCUCCAAAAGCCUGCAACAGAGGAUUGAGCAUCA
B13: chr1:204554719:204554820:+|3pUTR|ENSG00000198625|unk|total|mutant (ssRNA)
RNA: GGGAGUUCUACAGUCCGACGAUCAAGUACUUUCUUUUGACAGAAAUUUUCAUUCUGCUUGCCAUUGCUAUAUUCUCCCUUUACCGGAGCCAUUGGAUUUCUUUCCUUUUGUGGGAAAUGUCCCAUCCGCAUUUUCAGAUCUUUCAACAGAGGAUUGAGCAUCA
B14: chr2:74214837:74214938:+|3pUTR|ENSG00000065911|msi1_unk|total|mutant (ssRNA)
RNA: GGGAGUUCUACAGUCCGACGAUCCUGUCCUUUUGAGGCUCCGUCAGUUUAUUGGGAAAAUGUUCCGGAUUAUUCCUUGCUAUCCGUACUCAUUUUAUGUAUGUUACCCUUCAGUAAGUUCUCCCCAUUUCCGUUUUCCCGGACCAACAGAGGAUUGAGCAUCA

Each binder was assayed against MSI1 full-length (mouse, UniProt Q61474 1-362) (assay: nsRBNS (natural sequence RNA bind-n-seq); RBNS binding buffer (assumed for nsRBNS): 25 mM Tris pH 7.5, 150 mM KCl, 3 mM MgCl2, 0.01% Triton X-100, 500 ug/ml BSA, 20 U/ml SUPERase-In, 4 C; UNK is unkempt and MSI1 is Musashi-1; names of the RNAs are library labels; protein concentration not given here; high values mean tight binding).
Sequence of UniProt Q61474 (Q61474 whole entry): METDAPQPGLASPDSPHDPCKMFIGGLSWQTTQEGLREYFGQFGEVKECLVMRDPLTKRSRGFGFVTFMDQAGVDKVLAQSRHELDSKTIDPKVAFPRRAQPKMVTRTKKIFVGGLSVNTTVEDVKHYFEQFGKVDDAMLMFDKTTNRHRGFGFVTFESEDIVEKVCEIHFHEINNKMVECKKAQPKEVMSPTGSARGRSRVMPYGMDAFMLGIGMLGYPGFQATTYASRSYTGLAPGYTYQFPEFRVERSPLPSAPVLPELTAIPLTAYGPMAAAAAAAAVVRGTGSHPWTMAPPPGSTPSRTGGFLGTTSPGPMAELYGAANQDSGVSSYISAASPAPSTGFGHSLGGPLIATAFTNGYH

Row | Binder | binding signal [enrichment R]
1 | B1 | 0.757
2 | B2 | 0.586
3 | B3 | 0.42
4 | B4 | 0.374
5 | B5 | 0.774
6 | B6 | 0.484
7 | B7 | 0.531
8 | B8 | 0.613
9 | B9 | 0.698
10 | B10 | 0.508
11 | B11 | 8.04
12 | B12 | 0.413
13 | B13 | 0.288
14 | B14 | 0.32

Reference: paper PMC12136788
